The values that follow come from the RNAGym collection of RNA variant scans (doi:10.1101/gad.245936.114).

Variants at the background level are over-represented here. Where only a bound is given, the exact number is not on record here.

The chains are these.
B1: tRNA (parent)
chain: CUCUCGGUAGCCAAGUUGGUUUAAGGCGCAAGACUUUAAUUUAUCACUACGAAAUCUUGAGAUCGGGCGUUCGACUCGCCCCCGGGAGAUUUUUUCCUCGAGCAA

This data set covers variants of B1. Put plainly: nonsense suppression (GFP-seq) (ratio to wild type); higher = more function; SUP4oc tRNA, yeast GFP reporter sort-seq. An outline of the steps:
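Sorted GFP/RFP bins of yeast were each Illumina-sequenced with a phred ≥30 cutoff; the cells held a genome-integrated ochre-suppressor tRNA variant from a library with ~3% random mutations, a galactose-driven GFP ochre reporter, and RFP. Culture was in raffinose/galactose medium containing 80 mg/L adenine. Nonsense suppression, termed GFPSEQ, is the median GFP/RFP of the bins weighted by each variant's estimated cell share per bin, relative to the unmutated parent tRNA, for variants reaching ≥100 reads and ≥30 cells.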
As to A9U C34A U35C, the nonsense suppression is not above 0.026.
To C5U C79U belongs 0.0439; to C29U A62C A74U G85U, not above 0.026; to C1A G6A U55A A60U A62U, not above 0.026.
To C12U A23C G26C C82G belongs not above 0.026.
Take A13G C81A A87G: the nonsense suppression is not above 0.026.
For the variant A14G C27G, the nonsense suppression is not above 0.026.
The value for U4A U20C C83A was not above 0.026; that for C1A G25C was not above 0.026; that for U8C U21A G59U was not above 0.026.
The value for C27G A30U was not above 0.026; that for G10C G19U G59U C79G was not above 0.026; that for C5G U76G A89U was not above 0.026.
To G15U C72G belongs not above 0.026; to U4C A14U G26C, not above 0.026; to C5G U16G U21G A23G C75A, not above 0.026.
For the variant A30C G32U G84C, the nonsense suppression was not above 0.026.
For the variant U58G G59U A60G, the nonsense suppression was not above 0.026.
Consider C5U A30C C82U, for which the nonsense suppression was not above 0.026.
To U57G C72A C77A A87U belongs not above 0.026; to C12G C64G C77G, not above 0.026.
Turning to C27G U76C, the nonsense suppression is not above 0.026.
The value for U2G U57C G78A C81U was not above 0.026; that for A54C U63A G66C was not above 0.026.
To U21A A23G G61A belongs not above 0.026.
On to A31C G88C, for which the nonsense suppression was not above 0.026.
To G66C G69C G73C G84C belongs not above 0.026; to U17G A23G A30U U35A G61C G78C, not above 0.026.
The value for U4C A33U C64A was not above 0.026; that for A13U C27U G85A was 0.22; that for C12G A62U C77G G88C was not above 0.026.
Regarding U71G G73A G84C, the nonsense suppression was not above 0.026.
The value for C3A G15A was not above 0.026; that for A54U G59A was not above 0.026.
The value for U2C A30G U71C was not above 0.026; that for C11G C27G U70G was not above 0.026.
To A30C C34G C75G belongs not above 0.026.
Take A62C U71C A87G: the nonsense suppression was not above 0.026.
For A54C G84U, the nonsense suppression came to 0.0301.
With A14U U17C U22C A87C, the nonsense suppression is not above 0.026.
Consider G10U C83U, for which the nonsense suppression is not above 0.026.
The value for U17A U20G G28A C29A was not above 0.026; that for G65U G85U was not above 0.026.
The value for A31C C80U was not above 0.026; that for A33G A87C was not above 0.026; that for U21G G73C was not above 0.026.
To U4A A60C U71A belongs not above 0.026; to G19C U58G G88C, not above 0.026; to G78C C81A, not above 0.026.
Consider G10A A62U, for which the nonsense suppression was not above 0.026.
To C29A A31C belongs not above 0.026; to C1U G78A, 0.0525; to C3U U4C C79G, not above 0.026.
The value for U2C C56G U71G was not above 0.026.
The value for A14C C29G was not above 0.026; that for C27U G85A was 0.207; that for G85U G88A was 0.0446.
For C1U A13U, the nonsense suppression was not above 0.026.
The value for G6C U63C G65A was not above 0.026.
Turning to G19C A54C A62U, the nonsense suppression was not above 0.026.
The value for G28A C29U G69A was not above 0.026; that for A60C G61U was 0.768; that for U8A C34A G61U was not above 0.026.
The value for U21G G25U G26U G61A was not above 0.026.
Consider G25U G61A G67U, for which the nonsense suppression is not above 0.026.
To C3U A23G C34U A60G belongs not above 0.026; to G25U G67C, not above 0.026; to C3A G10U G86C, not above 0.026.
On to U2G G26C G69U G85U, for which the nonsense suppression is not above 0.026.
To U20G G66U belongs not above 0.026; to G59A C64A, not above 0.026.
Take U4C C72U G73C G78A: the nonsense suppression is not above 0.026.
The value for G7A G25A A33C A89U was not above 0.026; that for C11U U71A was not above 0.026.
To C75A G88C belongs not above 0.026; to A9U U20G U21C, not above 0.026; to A14U U22G A60U C72A A87C, not above 0.026.
The value for U17A A74U C79G was not above 0.026.
In the case of C12U C64A G73A, the nonsense suppression is not above 0.026.
The value for C75G G78C C83A was not above 0.026.
To U35G U58A C80G belongs not above 0.026; to U58G G61A C82G, not above 0.026; to U22G A60U G69C G73A A74U, not above 0.026.
To G32U G73A belongs not above 0.026; to A74U A87C G88A, not above 0.026.
For the variant C5A U17G, the nonsense suppression was not above 0.026.
To C1G U4C C5U U63G G78A belongs not above 0.026.
To U21A A74C belongs not above 0.026; to U4G A23G C68G C80A, not above 0.026; to U21G G84A, not above 0.026.
To U21A G25A belongs not above 0.026; to U55C G66A, 0.0631.
Take C5A A33G C34U A60G: the nonsense suppression is not above 0.026.
The value for U4A U20A was 0.072; that for C34G A89G was not above 0.026.
To U8A C27G G73A U76C G85U belongs not above 0.026; to A33U C81A, not above 0.026.
In the case of C34A G69U, the nonsense suppression is not above 0.026.
In the case of G7U G61C, the nonsense suppression was not above 0.026.
To A14U A31C belongs not above 0.026.
The value for C1A G69A C82A was not above 0.026; that for U70G C82G was not above 0.026; that for G26A A30G U63G was not above 0.026.
The value for C11A U20A A24G A30G G69U C75A was not above 0.026.
Turning to G26U U57A G88A, the nonsense suppression was not above 0.026.
The value for U4G A9C U20G U21A was not above 0.026.
A14U U20A G28C U57G: the nonsense suppression was not above 0.026.
On to G10U U22G A24U, for which the nonsense suppression was not above 0.026.
To A23C G26A belongs not above 0.026; to U21G G25C A33G, not above 0.026; to C1A G18U A24U A33G U63A G65A, not above 0.026.
To G10U C11U belongs not above 0.026.
To U8G G10C G15C U21A belongs not above 0.026; to C1G C5G U70C, not above 0.026.
On to C27U G59U G61U G66U, for which the nonsense suppression was not above 0.026.
Turning to A54G G78U G88U A89C, the nonsense suppression is not above 0.026.
With G6U C72A, the nonsense suppression was not above 0.026.
Take C27A A33C G66U: the nonsense suppression is not above 0.026.
On to U35A C82G, for which the nonsense suppression was not above 0.026.
For G15U U63G, the nonsense suppression is not above 0.026.
To U21G C56U belongs not above 0.026; to C3G A23G G32C U58A A89G, not above 0.026.
To A14G C56U G73U C75A belongs not above 0.026; to G6C A13C U22G A24G G59U G69C, not above 0.026.
To A9G C29G A74G C75A A87C belongs not above 0.026.
U4G A13C U35G G61A A74C C80U: the nonsense suppression was not above 0.026.
For the variant G15C A24C A30G A87U, the nonsense suppression is not above 0.026.
The value for C12U G28U was 0.0705.
To U57A A87U belongs not above 0.026.
To C3G G7U belongs not above 0.026; to C3G C29G A54U, not above 0.026; to U4C U71C, not above 0.026.
For the variant A33U C72G G88U, the nonsense suppression is not above 0.026.
For U2G G6A U63G, the nonsense suppression was not above 0.026.
The value for C27G G65C C79G was not above 0.026; that for A9G U58A A89C was not above 0.026; that for U20A C72G A87C was not above 0.026.
To C3U C12A U35G U71A belongs not above 0.026; to G7A A24U C75U G78C, not above 0.026; to U4A A23C G65C C82G G86C, not above 0.026.
Take A54G G67C U76A: the nonsense suppression is not above 0.026.
To U4A G7A A13U G66C belongs not above 0.026; to A23C A24G C29G, not above 0.026; to C12U A74U, not above 0.026.
The value for C11A A31C C56A C64U was not above 0.026.
The value for G66A C80G G86C was not above 0.026; that for C64A C68G G73U was not above 0.026; that for U76G C81G was not above 0.026.
As to C11A U21G G59A A62U, the nonsense suppression was not above 0.026.
The value for C5G C29U U55A U57G A87C was not above 0.026.
To A62C G85C A89U belongs not above 0.026; to C3U G6U G61A G65A, not above 0.026.
The value for U17A C79A was not above 0.026; that for C1A C80U was 0.0314; that for A14G G32A G61C U70A was not above 0.026.
U21A A30G: the nonsense suppression was 0.42.
On to G10U U20G A62C, for which the nonsense suppression was not above 0.026.
The value for C1G C56A U58G was not above 0.026; that for G25U C56U U71C was not above 0.026; that for A31C G67A G88C was not above 0.026.
The value for G7A G59C was not above 0.026.
The value for C3G A14U was not above 0.026; that for U4G G59A was 0.0506.
In the case of A24C A54C, the nonsense suppression came out at 0.198.
Take G6U C27G A74U: the nonsense suppression was not above 0.026.
For the variant G15U A62U U63A U71A, the nonsense suppression is not above 0.026.
The value for G28C U57C C75G was not above 0.026.
